# Source: the RNAGym collection of RNA variant scans (doi:10.7554/elife.90254)
# The source gives no read counts; variants with many changes may rest on few reads.
# B1: LINE1-full (parent)
# chain: UACGUAGGUGGUUUUCCCCUGAUAGUGCUAAGGGGGCCUGGAAGUUUGGACUGGGCAGAGCUCAACACAGCGUGGCAAAGUGGCUGUGGCUAGACUGCCUCUCUGGAUUCCUCGUCACUCAGCAGGGCAUCUCUGAGAGAAAUGCC
# Variants of: B1
# Assay: self-cleavage, relative activity (ratio to wild type); higher = more cleavage; in vitro, sequencing; the parent is a self-cleaving ribozyme
row,Variant,self-cleavage
1,UACGUAGGUGGUUUUCCCCUGAUAGUGCUAAGGGUGCCUGGAAGUUUGAACUGGGCAGAGCUCAACACAGCGUGGCAAAGAGGCUGUGGCUAGACUGCCUCUCUGGAUUCCUCGUCACUCAGCAGGGCAUCUCUGAGAGAAAUGCC [G35U G49A U81A],1.06
2,UACGUAGGUGGUUCUCCCCUGAUAGUGCUAAGGGGGCCUGGAAGUUUGGACCGGGCAGAGUUCAACACAGCGUGGCAAAGUGGCUGUGGCUAGACUGCCUCUCUGGAUUCCUCGUCACUCAGCAGGGCAUCUCUGAGAGAAAUGCC [U14C U52C C61U],0.1
3,UACGUAGGCGGUUUUCCCCUGAUAGUGCUAAGGGGGCCUGGAAGUUUGGACUGGGCAGAGCUCAACACAGCCUGGCAAAGUGGCUGUGGCUAGACUGCCUCUCUGGAUUCCUCGUCACUCAGCAGGGUAUCUCUGAGAGAAAUGCC [U9C G72C C128U],0.99
4,UACGUAGGUGGUCUUCCCCUGAUAGUGCUAAGGGGGUCUGGAAGUUUGGACUGGGCAGAGCUCCACGCAGCGUGGCAAAGUGGCUGCGGCUAGACUGCCUCUUUGGAUUCCUCGUCACUCAGCAGGGCAUCUCUGAGAGAAAUGCC [U13C C37U A64C A67G U87C C103U],0.57
5,UACGUAGGUGGUAUUCCCCUGAUAGUGCUAAGGGGGCCUGGAAGUUUGGACUGGGCAGAGCUCAACACAGCGUGGCAAAGUGGCCGUGGCUAGACUGCCUCUCUGGAUUCCUCGUCACUCAGCAGGGCAUCUCUGAGAGAGAUGCC [U13A U85C A141G],0.05
6,UACGUAGGUGGUUAUUCCCUGAUAGUGCUAAGGGGGCCUGGAAGUUUGGACUGGGCAGAGCUCAACACAGCGUGGCAAAGUGGCUGUGGCUAGACUGCCUCUCUGGAUUCCUCGUCACCCAGCAGGGCAUCUCUGAGAGAAAUGCC [U14A C16U U119C],1.66
7,UACGUAGGUGGUUUUCCCCUGAUAGUGCUAAGGGGGCCUGGAAGUUUGGACCGGGCAGAGCUCAACACAGCGUGGCAAAGUGGCUGAGGCAAGACUGCCUCUCUGGAUUCCUCGUCGCUCAGCAGGGCAUCUCUGAGAGAAAUGCC [U52C U87A U91A A117G],0
8,UACGUAGGUGGUUUUCCCCUGAUAGUGCUAAGGGGGCCUGGAAGUUUGGACUGGGCAGAGCCCAACACAGCGAGGCAAAGUGGCUGUGGCUAGACUGCCUCUCUGGAUUCCUCGUCACUCUGCAGGGCAUCUCUGAGAGGAAUGCC [U62C U73A A121U A140G],0.05
9,UACGUAGGUGGUUUUCCCCUGUUAGUGCUAAGGGGGCCUGGGAGUUUGGACUGGGCAGAGCUCAACACAGCGUGGCAAAGUGGCUGUAGCUAGACUGCCUCUCUGGGUUCCUCGUCACUCAGCAGGGCAUCUCUGAGAGAAAUGCC [A22U A42G G88A A107G],0.17
10,UACGUAGGUGGUUUUCCCCUGAUAGUGCCAAGGGGGCCUGGAAGUCUGGACUGGGCAGAGCUCAACACAGCGUGGCAAAGUGGAUGUGGCUAGACUGCCUCUCUGGAUUCCUCGCCACUCAGCAGGGCAUCUCUGAGGGAAAUGCC [U29C U46C C84A U115C A138G],0.23
11,UACGUAGGUGGUUUUCCCCUGAUAGUGCUAAGGGUGCCUGGAAGUUUGGACUGGGCAGAGCUCGACACAGCGUGGCAAAGUGGCCGUGGCUUGACUGCCUCUCUGGAUUCCUCGUCACUCAGCAGGGCAUCUCUGAGAGAAAUGCC [G35U A64G U85C A92U],0.13
12,UACGUAGGUGGUCUUCCCCUGAUAGUGCUAAGGGGGCCUGGAAGUUUGGACUGGGCAGAGCGCAACACAGCGUGGCAAAGAGGCUGUGGCUAGACUGCCUCCCUGGAUUCCUCGUCACUCAGCAGGGCAUCUCUGAGAGAAAUGCC [U13C U62G U81A U102C],0.25
13,UACGUAGGUGGUUUUCCCCUGGUAGUGCUAAGGGGGCCUGGAAGUUUGGACUGGGCAGAGCUCAACACGGCGUGGCAAAGUGGCUGUGGCUAGACUGCCUCUCUGGUUUCCUCGUCACUCAGCAGGGCAUCUCUGAGAGAAAUGCC [A22G A69G A107U],0.16
14,UACGUAGGCGGUUUUCCCCUGAUAGUGCUAAGGGGGCCUAGAAGUUUGGACUGGGCAGAGCUCAACACAGCGUGGCAAAGUGGCAGUGGCUGGACUGCCUCUCCGGAUUCCUCGUCACUCAGCAGGGCAUCUCUGAGAGAAAUGCC [U9C G40A U85A A92G U104C],0.16
15,UACGUAGGUGGUCUUCCCCUGAUGGUGCUAAGGGGGCCUGGGAGUUUGGACUGGGCAGAGCUCAACACAGCGUGGCAAAGUGGCUGUGGCUAGACUGCCUCUCUGGAUUCCUCGUCACUCAGCAGGGCAUCUCUGAGAGAAAUGCC [U13C A24G A42G],1.07
16,UUCGUAGGUGGUUUUCCCCUGAUAGUGCUAAGGGGGCCUGGAAGUUUGGACUGGGUAGAGCUCAACACAGCGUGGCAAAGUGGCUGUGGCUAGACUGCCUCUCUGGAUUCCUCGUCACUCAGCAGGGCAUCACUGAGAGAAAUGCC [A2U C56U U132A],0.22
17,UACGUAGGUGGCUUUCUCCUGAUAGUGCUAAGGGGGCCUGGGAGUUUGGACUGGGCAGAGCUCAACUCAGCGUGGCAAAGUGGCUGUGGCUAGACAGCCUCUCUGGAUUCCUCGUCACUCAGCAGGGCAUCUCUGAGAGAAAUGCC [U12C C17U A42G A67U U96A],0.1
18,UUUGUAGGUGGUUUUCCCCUGAUAGUGCUAAGGGGGCCUGGAAGUUUGGACUGGGCAGAGCUCAACACAGCGUGGCAAAGUGGCUGUGGCUAGACUGCCUCUCUGGAUUCCUCGUCACUCAGCAGGGCGUCUCUGAGAGAAAUGCC [A2U C3U A129G],1.05
19,UACGUAGGUGGUUUUCCCCUGAUAGUGCUAAGGGGGCCUGGAAGUUUGGACUGGGCAGAGCUCGGCACAGCGUGGCAAAGUGGCUGUGGCUAGACUGCCUCUCUGGAUUCCUCGUCACUCAGCAGGGCAUCUCUGGGAGAGAUGCC [A64G A65G A136G A141G],0.4
20,UACGUAGGUGGUUUUCCCCUGAUAGGGCUAUGGGGGCCUGGAAGUUUGGACUGGGCAGAGCUCAACACAGCGUGGUAAAGUGGCUGUGGCUAGACCGCCUCUCUGGAUUCCUCGUCACUCAGCAGGGCAUCUCUGAGAGAAAUGCC [U26G A31U C76U U96C],0.29

row,Variant,self-cleavage
1,UACGUAGGUGGUUUUCCCCUGAUAGUGCUAUGGGGGCCUGGAAGUUCGGACUGGGCAGAGCUCAGCACAGCGUGGCAAAGUGGCUGUGGCUAGACUGCCUCCCUGGAUUCCUCGUCACUCAGCAGGGCAUCUCUGAGAGAAAUGCC [A31U U47C A65G U102C],0
2,UACGUAGGUGGUUUUCCCCUGAUAGUGCUAAGGGGGCCUGGAAGUUUGGGCUGGGCAGAGCUCAACACAGCGUGGCAAAGUGGCUGUGGCUAGACUGCCUCUCUGGAUCCCUCGUCACUCAGCUGGGCAUCUCUGAGAGAAAUGCC [A50G U109C A124U],0.92
3,UACGUAGGUGGUUUUCCCCUGAAAGUGCUAAGGGGGCCAGGAAGUUUGGACUGGGCAGAGCUCAACACAGCGUGGCAAAGUGGCUGUGGCUAGACCGCCUCUCUGGAUUCCUCGUCACUCAGCAGGGCAUCUCUGAGAGAAAUGCC [U23A U39A U96C],0.08
4,UACGUAGGUGGUUAUCCCCUGAUAGUGCCAAGGGGGCCUGGAAGUUUGGACUGGGCAGAGCUCAACACAGCGCGGCAAAGUGGCUGUGGCUAGACUGCCUCUCUGGAUUCCUCGUCACUCAGCAGGGCAUCUCUGAGAGAAAUGCC [U14A U29C U73C],1.31
5,UGCGUAGGUGGUUUUCCCCUGAUAGUGCUAAGGGGGCCUGGAAGUUUGGACUGGGCAGAGCUCGACACAGCGUGGCAAAGUGGCUGUGGCUAGACUGCCUCCCUGGAUUCCUCGUCACUCAGCAGGGCAUCUCUGAGAGAAAUGCC [A2G A64G U102C],0
6,UACGUAGGUGGUUUUCCCCUGAUAGUGCUAAGGGGGCCUGGAGGUUUGGACUGGGCAGAGCUCAACACAGUGUGGCAAAGUGGCUGUGGCUAGACUGCCUCACUGGAUUCCUCGUCACUCAGCAGGGCAUCCCUGAGAGAAAUGCC [A43G C71U U102A U132C],0.34
7,UACGUAGGUGGUUUUCCCCCGAUAGUGCUAAGGGGGCCUGGAAGUUUGGACUGGGCAGAGCUCAACACGGCGUGGCAAAGUGGCUGUGGCUAGACUGCCUCACUGGAUUCCUCGUCACUCAGCAGGGCAUCUCUGAGAGAAAUGCC [U20C A69G U102A],0.13
8,UACGAAGGAGGUUUUCCCCUGAUAGUGCUAAGGGGGCCUGGAAGUUUGGACUGGGCAGAGCUCAACACAGCGUGGCAAAGUGGCUGUGGCUAGACUGCCUCUCUGGAUUCCUCGUCACUCAGCAGGGCAUCUCUGAGAGAAGUGCC [U5A U9A A142G],1.09
9,UACGUAGGUGGUUUUCCCCUGAUAGUGCUAAGGGGGCCUGGAAGUUUGGACUGGGCGGAGCUCAACACUGCGUGGCGAAGUGGCUGUGGCUAGACUGCCUCUCUGGAUUCCUCGUCACUCAGCAGGGCAUCUCGGAGAGAAAUGCC [A57G A69U A77G U134G],0
10,UACGUAGGUGGCUUACCCCUGAUAGUGCUAAGGGGGCCUGGAAGUUUGGACUGGGCAGAGCUCAACACAGCGUGGCAAAGUGGCUGUGGCUAGACUGCCUCUCUGGAUUCCUCGUCACUCAGCAGGGCAUCUCUGAGAGAUUUGCC [U12C U15A A141U A142U],0.65
11,UACGUGGGUGGUUUUCCCCUGAUAGUGCUAAGGGGGCCUGGAAGUUUGGACUGGGCGGAGCUCAACUCAGCGUGGCGAAGUGGCCGUGGCUAGACUGCCUCUCUGGAUUCCUCGUCACUCAGCAGGGCAUCUCUGAGAGAAAUGCC [A6G A57G A67U A77G U85C],0
12,UACGUAGGUGGUUUUCCCCUGAUAGAGCUAAGAGGGCCUGGAAGUUUGGACUGGGCAGAGCUCAACACAGCGUGGCAAAGUGGCUGUGGCUAGACUGCCUCCCUGGAUUCCUCGUCACUCAGCGGGGCAUCUCUGAGAGAAAUGCC [U26A G33A U102C A124G],0.86
13,CACGUAGGUGGUUUUCCCCUGAUAGUGCUAAGGGGGCCUGGAAGUCUGGACUGGGCAGAGCUCAACACAGCGUGGCAAAGUGGCUGUGGCUAGACUGCCUCUCUGGAUUCCUCGUCACUCAGCAGGGCAUCUCUGGGAGAAAUGCC [U1C U46C A136G],1.36
14,CACGUAGGUGGUUGUCCCCUGAUAGUGCUAAGGGGGCCUGGAAGCUUGGACUGGGCAGGGCUCAACACAGCGUGGCAAAGUGGCAGUGGCUAGACUGCCUCUCUGGAAUCCUCGUCACUCGGCAGGGCAUCUCUGAGAGAAAUGCC [U1C U14G U45C A59G U85A U108A A121G],0
15,UACGUAGGUGGUUUUCCCCUGAUAGUGCUAAGGGGGCCUAGAAGUUUGGACUGGGCAGGGCUCAGCACAGCGUGGCAAAGUGGCUGUGGCUAGACUGCCUCUCUGGAUUCCUCGUCACUCAGCAGGGCAUCUCUGAGAGAAAUGCC [G40A A59G A65G],0.11
16,UACGUAGGUGGUUUUCCCCUAAUAGUGCUAAGGGGGCCUGGAAGUUGGGACUGGGCAGGGCUCAACACAGCGUGGCAAAGUGGCUGUGGCUAGACUGCCUCUCUAGAUUCCUCGUCACUCAGCAGGGCGUCUCUGAGAGAAAUGCC [G21A U47G A59G G105A A129G],0.18
17,UGCGUAGGUGGUUUUCCCCUGAUAGUGCUGAGGGGGCCUGGAAGUUUGGACUGGGCAGAGCUCAACACAGCGUGGCCAAGUGGCUGUGGCUAGACUGCCUCUCUGGAUUCCUCGUCACUCAGCAGGGCAUCUCUGAGAGAAAUGCC [A2G A30G A77C],0.84
18,UACGUAGGUGGUUUUCCCCUGAUAGUGCUACGGAGGCCUGGAAGUUUGGACUGGGCAGAGCUCAACACAGCGUGGCAAAGUGGCUGUGGCUAGACUGCCUCUCUGGAUUCCUCGCCACUCAGCAGGGCAUCUCUGAGAGAAAUGCC [A31C G34A U115C],0
19,UACGUAGGUGGUUUUCCCCUGAUAGUGCUAGGGGGGCCUGGAAGUUUGGACUGGGCAGAGCCCAACACAGCGUGGCAAAGUGGCUGUGGCUAGUCUGCCUCUCUGGACUCCUCGUCACUCAGCAGGGCAUCUCUGAGAGAAAUGCC [A31G U62C A94U U108C],0
